{
  "source": "the supplement of paper PMC9588766",
  "note": "Where a name gives a salt, the structure may show the parent alone. The full ranking holds about 1,900 compounds; the median of “cell viability of compound + 1 nM pemigatinib relative to pemigatinib-only (DMSO) wells” is about 0.95, and the lowest 2% start at about 0.22. This is one part of the list.",
  "data": [
    {"test_system": "PDC-DUC18828", "assay": "cell viability of compound + 1 nM pemigatinib relative to pemigatinib-only (DMSO) wells (fraction); PDC-DUC18828 is a patient-derived cholangiocarcinoma cell line; higher = less growth inhibition", "conditions": "first compound 1 µM; pemigatinib concentration 1 nM; 72 h", "method": "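Selleck Bioactive library screen in the patient-derived FGFR2 fusion-positive ICC cell line PDC-DUC18828 (500 cells/well). Each compound was tested at 1 uM with 1 nM pemigatinib, in triplicate, for 72 h. Viability was read by CellTiter-Glo and normalised to plate DMSO controls. Value is the paper's averaged normalised viability.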", "values": [
      {"molecule": "O=C(/C=C/c1ccc(O)cc1)c1ccc(O)cc1O", "note": "[Isoliquiritigenin] + CCN1C(=O)N(c2c(F)c(OC)cc(OC)c2F)Cc2cnc3[nH]c(CN4CCOCC4)cc3c21 [pemigatinib]", "cell viability": 0.872},
      {"molecule": "N#Cc1ccc(-c2csc(NN=C3CCCC3)n2)cc1", "note": "[Remodelin] + CCN1C(=O)N(c2c(F)c(OC)cc(OC)c2F)Cc2cnc3[nH]c(CN4CCOCC4)cc3c21 [pemigatinib]", "cell viability": 0.986},
      {"molecule": "COc1cccc2c1C(=O)c1c(O)c3c(c(O)c1C2=O)C[C@@](O)(C(C)=O)C[C@@H]3O[C@H]1C[C@H](N)[C@H](O)[C@H](C)O1", "note": "[Daunorubicin HCl] + CCN1C(=O)N(c2c(F)c(OC)cc(OC)c2F)Cc2cnc3[nH]c(CN4CCOCC4)cc3c21 [pemigatinib]", "cell viability": 0.0984},
      {"molecule": "CNC(=O)c1ccccc1Nc1cc(Nc2ccc(N3CCOCC3)cc2OC)ncc1C(F)(F)F", "note": "+ CCN1C(=O)N(c2c(F)c(OC)cc(OC)c2F)Cc2cnc3[nH]c(CN4CCOCC4)cc3c21 [pemigatinib]", "cell viability": 0.758},
      {"molecule": "CNC(=O)c1cc(Oc2ccc(NC(=O)Nc3ccc(Cl)c(C(F)(F)F)c3)cc2)ccn1", "note": "[Sorafenib Tosylate] + CCN1C(=O)N(c2c(F)c(OC)cc(OC)c2F)Cc2cnc3[nH]c(CN4CCOCC4)cc3c21 [pemigatinib]", "cell viability": 1.03},
      {"molecule": "CNC(=O)c1cc(Oc2ccc(NC(=O)Nc3ccc(Cl)c(C(F)(F)F)c3)cc2)ccn1", "note": "[Sorafenib] + CCN1C(=O)N(c2c(F)c(OC)cc(OC)c2F)Cc2cnc3[nH]c(CN4CCOCC4)cc3c21 [pemigatinib]", "cell viability": 1.05},
      {"molecule": "CC/C(=C(\\c1ccc(O)cc1)c1ccc(OCCNC)cc1)c1ccccc1", "note": "[Endoxifen HCl] + CCN1C(=O)N(c2c(F)c(OC)cc(OC)c2F)Cc2cnc3[nH]c(CN4CCOCC4)cc3c21 [pemigatinib]", "cell viability": 0.965},
      {"molecule": "Cc1ccc(S(=O)(=O)Cc2nc(-c3ccc(C(=O)NCc4cccnc4)cc3)oc2C)cc1", "note": "+ CCN1C(=O)N(c2c(F)c(OC)cc(OC)c2F)Cc2cnc3[nH]c(CN4CCOCC4)cc3c21 [pemigatinib]", "cell viability": 0.413},
      {"molecule": "C=C1CC[C@@H]2[C@](C)(CO)[C@H](O)CC[C@@]2(C)[C@@H]1C/C=C1/C(=O)OC[C@H]1O", "note": "[Andrographolide] + CCN1C(=O)N(c2c(F)c(OC)cc(OC)c2F)Cc2cnc3[nH]c(CN4CCOCC4)cc3c21 [pemigatinib]", "cell viability": 0.956},
      {"molecule": "Cc1cn([C@H]2C=C[C@@H](CO)O2)c(=O)[nH]c1=O", "note": "[Stavudine (d4T)] + CCN1C(=O)N(c2c(F)c(OC)cc(OC)c2F)Cc2cnc3[nH]c(CN4CCOCC4)cc3c21 [pemigatinib]", "cell viability": 0.972},
      {"molecule": "CC(=O)NS(=O)(=O)c1ccc(N)cc1", "note": "[Sulfacetamide Sodium] + CCN1C(=O)N(c2c(F)c(OC)cc(OC)c2F)Cc2cnc3[nH]c(CN4CCOCC4)cc3c21 [pemigatinib]", "cell viability": 0.983},
      {"molecule": "C=CC1=C(C(=O)O)N2C(=O)[C@@H](NC(=O)/C(=N\\O)c3csc(N)n3)[C@H]2SC1", "note": "[Cefdinir] + CCN1C(=O)N(c2c(F)c(OC)cc(OC)c2F)Cc2cnc3[nH]c(CN4CCOCC4)cc3c21 [pemigatinib]", "cell viability": 1.05},
      {"molecule": "CN1C(CCl)Nc2cc(Cl)c(S(N)(=O)=O)cc2S1(=O)=O", "note": "(configuration not stated) [Methyclothiazide] + CCN1C(=O)N(c2c(F)c(OC)cc(OC)c2F)Cc2cnc3[nH]c(CN4CCOCC4)cc3c21 [pemigatinib]", "cell viability": 0.897},
      {"molecule": "OCc1ccccc1O[C@@H]1O[C@H](CO)[C@@H](O)[C@H](O)[C@H]1O", "note": "[Salicin] + CCN1C(=O)N(c2c(F)c(OC)cc(OC)c2F)Cc2cnc3[nH]c(CN4CCOCC4)cc3c21 [pemigatinib]", "cell viability": 0.976},
      {"molecule": "CC(C=CC(=O)NO)=CC(C)C(=O)c1ccc(N(C)C)cc1", "note": "(configuration not stated) [Trichostatin A (TSA)] + CCN1C(=O)N(c2c(F)c(OC)cc(OC)c2F)Cc2cnc3[nH]c(CN4CCOCC4)cc3c21 [pemigatinib]", "cell viability": 0.0931},
      {"molecule": "c1ccc2c(CC3=NCCN3)cccc2c1", "note": "[Naphazoline HCl] + CCN1C(=O)N(c2c(F)c(OC)cc(OC)c2F)Cc2cnc3[nH]c(CN4CCOCC4)cc3c21 [pemigatinib]", "cell viability": 0.947},
      {"molecule": "CC(=O)OCC(=O)[C@@]12OC(C)(C)O[C@@H]1C[C@H]1[C@@H]3C[C@H](F)C4=CC(=O)C=C[C@]4(C)[C@@]3(F)[C@@H](O)C[C@@]12C", "note": "[Fluocinonide] + CCN1C(=O)N(c2c(F)c(OC)cc(OC)c2F)Cc2cnc3[nH]c(CN4CCOCC4)cc3c21 [pemigatinib]", "cell viability": 0.914},
      {"molecule": "CCN(CC)CC(=O)Nc1c(C)cccc1C", "note": "[Lidocaine] + CCN1C(=O)N(c2c(F)c(OC)cc(OC)c2F)Cc2cnc3[nH]c(CN4CCOCC4)cc3c21 [pemigatinib]", "cell viability": 0.994},
      {"molecule": "CC(=O)c1cc2c(o1)C(=O)c1ccccc1C2=O", "note": "[Napabucasin] + CCN1C(=O)N(c2c(F)c(OC)cc(OC)c2F)Cc2cnc3[nH]c(CN4CCOCC4)cc3c21 [pemigatinib]", "cell viability": 0.011},
      {"molecule": "CN(c1ccccc1CNc1nc(Nc2ccc3c(c2)CC(=O)N3)ncc1C(F)(F)F)S(C)(=O)=O", "note": "+ CCN1C(=O)N(c2c(F)c(OC)cc(OC)c2F)Cc2cnc3[nH]c(CN4CCOCC4)cc3c21 [pemigatinib]", "cell viability": 0.826},
      {"molecule": "CCCCN(Cc1ccc(C(=O)NO)cc1)C(=O)Nc1ccccc1", "note": "[Nexturastat A] + CCN1C(=O)N(c2c(F)c(OC)cc(OC)c2F)Cc2cnc3[nH]c(CN4CCOCC4)cc3c21 [pemigatinib]", "cell viability": 0.999},
      {"molecule": "COC(=O)N[C@H](C(=O)N1CCC[C@H]1c1ncc(-c2ccc(-c3ccc(-c4cnc([C@@H]5CCCN5C(=O)[C@@H](NC(=O)OC)C(C)C)[nH]4)cc3)cc2)[nH]1)C(C)C", "note": "+ CCN1C(=O)N(c2c(F)c(OC)cc(OC)c2F)Cc2cnc3[nH]c(CN4CCOCC4)cc3c21 [pemigatinib]", "cell viability": 0.839},
      {"molecule": "CC(C(=O)O)c1cccc(C(=O)c2ccccc2)c1", "note": "(configuration not stated) [Ketoprofen] + CCN1C(=O)N(c2c(F)c(OC)cc(OC)c2F)Cc2cnc3[nH]c(CN4CCOCC4)cc3c21 [pemigatinib]", "cell viability": 1.02},
      {"molecule": "Cc1cc(C)c2c(c1)[C@@H](N(Cc1cc(C(F)(F)F)cc(C(F)(F)F)c1)c1nnn(C)n1)CCCN2C[C@H]1CC[C@H](C(=O)O)CC1", "note": "+ CCN1C(=O)N(c2c(F)c(OC)cc(OC)c2F)Cc2cnc3[nH]c(CN4CCOCC4)cc3c21 [pemigatinib]", "cell viability": 0.906},
      {"molecule": "CCOC(=O)c1ncn2c1CN(C)C(=O)c1cc(F)ccc1-2", "note": "[Flumazenil] + CCN1C(=O)N(c2c(F)c(OC)cc(OC)c2F)Cc2cnc3[nH]c(CN4CCOCC4)cc3c21 [pemigatinib]", "cell viability": 0.998},
      {"molecule": "CC1=C(C(=O)Nc2cc3cn[nH]c3cc2F)C(c2ccc(C(F)(F)F)cc2)CC(=O)N1", "note": "(configuration not stated) + CCN1C(=O)N(c2c(F)c(OC)cc(OC)c2F)Cc2cnc3[nH]c(CN4CCOCC4)cc3c21 [pemigatinib]", "cell viability": 1.05},
      {"molecule": "CNC(=O)c1ccccc1Nc1nc(Nc2ccc(N3CCOCC3)cc2OC)ncc1Cl", "note": "+ CCN1C(=O)N(c2c(F)c(OC)cc(OC)c2F)Cc2cnc3[nH]c(CN4CCOCC4)cc3c21 [pemigatinib]", "cell viability": 0.706},
      {"molecule": "COc1ccc(/C=C\\c2cc(OC)c(OC)c(OC)c2)cc1O", "note": "[Combretastatin A4] + CCN1C(=O)N(c2c(F)c(OC)cc(OC)c2F)Cc2cnc3[nH]c(CN4CCOCC4)cc3c21 [pemigatinib]", "cell viability": 0.281},
      {"molecule": "COc1cc(C(C)=O)ccc1OCCCN1CCC(c2noc3cc(F)ccc23)CC1", "note": "[Iloperidone] + CCN1C(=O)N(c2c(F)c(OC)cc(OC)c2F)Cc2cnc3[nH]c(CN4CCOCC4)cc3c21 [pemigatinib]", "cell viability": 1.02},
      {"molecule": "CCCC1O[C@@H]2C[C@H]3[C@@H]4CCC5=CC(=O)C=C[C@]5(C)[C@H]4[C@@H](O)C[C@]3(C)[C@]2(C(=O)CO)O1", "note": "(some centres not stated) [Budesonide] + CCN1C(=O)N(c2c(F)c(OC)cc(OC)c2F)Cc2cnc3[nH]c(CN4CCOCC4)cc3c21 [pemigatinib]", "cell viability": 0.976},
      {"molecule": "CNC(=O)[C@@H](c1ccccc1)N1CCc2cc(OC)c(OC)cc2[C@@H]1CCc1ccc(C(F)(F)F)cc1", "note": "[Almorexant HCl] + CCN1C(=O)N(c2c(F)c(OC)cc(OC)c2F)Cc2cnc3[nH]c(CN4CCOCC4)cc3c21 [pemigatinib]", "cell viability": 1.07},
      {"molecule": "NCCCC[C@@H]1NC(=O)[C@@H](Cc2ccccc2)NC(=O)[C@H](CC(=O)O)NC(=O)CNC(=O)[C@H](CCCN=C(N)N)NC1=O", "note": "[Cyclo (-RGDfK)] + CCN1C(=O)N(c2c(F)c(OC)cc(OC)c2F)Cc2cnc3[nH]c(CN4CCOCC4)cc3c21 [pemigatinib]", "cell viability": 0.94},
      {"molecule": "c1cc(-c2cnn3cc(-c4ccc(N5CCNCC5)cc4)cnc23)c2cccnc2c1", "note": "+ CCN1C(=O)N(c2c(F)c(OC)cc(OC)c2F)Cc2cnc3[nH]c(CN4CCOCC4)cc3c21 [pemigatinib]", "cell viability": 0.954},
      {"molecule": "CC(C)NCC(O)c1ccc(O)c(O)c1", "note": "(configuration not stated) [Isoprenaline HCl] + CCN1C(=O)N(c2c(F)c(OC)cc(OC)c2F)Cc2cnc3[nH]c(CN4CCOCC4)cc3c21 [pemigatinib]", "cell viability": 0.917},
      {"molecule": "CS(=O)(=O)N1CCN(Cc2cc3nc(-c4cccc5[nH]ncc45)nc(N4CCOCC4)c3s2)CC1", "note": "+ CCN1C(=O)N(c2c(F)c(OC)cc(OC)c2F)Cc2cnc3[nH]c(CN4CCOCC4)cc3c21 [pemigatinib]", "cell viability": 0.865},
      {"molecule": "COc1ccc2[nH]c([S@@+]([O-])Cc3ncc(C)c(OC)c3C)nc2c1", "note": "[Esomeprazole Magnesium] + CCN1C(=O)N(c2c(F)c(OC)cc(OC)c2F)Cc2cnc3[nH]c(CN4CCOCC4)cc3c21 [pemigatinib]", "cell viability": 0.98},
      {"molecule": "COc1ccc2[nH]c([S@@+]([O-])Cc3ncc(C)c(OC)c3C)nc2c1", "note": "[Esomeprazole Sodium] + CCN1C(=O)N(c2c(F)c(OC)cc(OC)c2F)Cc2cnc3[nH]c(CN4CCOCC4)cc3c21 [pemigatinib]", "cell viability": 0.991}
    ]}
  ]
}
